# Reference: PubChem BioAssay AID686979 (National Center for Advancing Translational Sciences (NCATS), 2013)
# In all, about 420,000 compounds went through this assay and about 50,000 (12%) were called active. Inconclusive means that the source gave no clear call. Such entries were picked first, then a sample of the others. Calls follow the shape of the dose curve; as a rule, active = well fitted inhibition curve with a large enough effect; inconclusive = small, poorly fitted or top-dose-only effect; inactive = flat fitted curve, though single readings scatter. No potency is given beside an inconclusive call; the fits are too rough.
# Assay: qHTS for Inhibitors of human tyrosyl-DNA phosphodiesterase 1 (TDP1): qHTS in cells in presence of CPT; also: nearly all actives have a fitted effect of over 55% in size
# Settings: chicken DT40 Tdp1-/-;hTDP1 cells + 20 nM CPT, ATP luminescence, 48 h; activity change, negative = growth inhibition: at 46.2 µM (top of the series) unless noted
# How it was run: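 Chicken DT40 Tdp1-/- cells complemented with human TDP1, 400 cells/well, exposed to compounds plus 20 nM camptothecin for at least 48 h at 37 C; viability read as ATP content by CellTiter-Glo luminescence.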
# % is scaled to controls: 0 for no effect and ±100 for the full control effect; potency is read from the fitted curve at half-maximal effect; tags tell the direction and shape of the fitted curve.
Compound,Potency,"activity change, negative = growth inhibition"
CCCCCS(=O)(=O)c1oc(-c2cccs2)nc1S(=O)(=O)c1ccc(C)cc1,active: 4.61 µM,
Cc1cccnc1NCc1ccc(O)c2ncccc12,active: 4.61 µM,
CCc1ccc(OCCOCC(O)CNC(C)CC)cc1 (stereo unspecified),"inconclusive [inhibitor, single point]",
Cc1ccc(-c2[nH][nH]c(=O)c(=O)c2N=Nc2ccccc2)cc1,"inconclusive [inhibitor, partial curve]",
COc1ccc(NC(=O)CNC(=O)C23CC4CC(CC(C4)C2)C3)c(OC)c1,"inconclusive [inhibitor, single point]",
O=C(NC(=S)Nc1ccccc1[N+](=O)[O-])c1cncc(Br)c1,,inactive: -1.6%
COc1ccc(N(CC(=O)NCc2ccc(F)cc2)C(=O)c2snc(C(N)=O)c2N)cc1OC,,inactive: 4.22%
O=C(Nc1ccc([N+](=O)[O-])cc1)c1ccc(Cn2cc([N+](=O)[O-])cn2)cc1,active: 18.4 µM,
Cc1ccc(C)c(-n2c(Cc3cccs3)n[nH]c2=S)c1,"inconclusive [inhibitor, single point]",
Cc1cccc(OCC(=O)N(Cc2cccs2)c2ccc(Cl)cc2)c1C,"inconclusive [inhibitor, single point]",
Cc1ccc2[nH]c3c(=O)n(CC(=O)Nc4ccccc4N4CCN(C)CC4)ncc3c2c1,"inconclusive [inhibitor, single point]",
CCc1ccc(CN(C)C(=O)C2CCC(=O)N(Cc3ccccn3)C2)cc1 (stereo unspecified),,inactive: -23.1%
COc1ccc2[nH]cc(CCNc3cc(-c4cccnc4)ncn3)c2c1,"inconclusive [inhibitor, single point]",
O=S(=O)(Nc1ccc2c(c1)nc1n2CCOC1)c1ccccc1,,inconclusive: -38.9% [inhibitor]
Brc1ccc2ncnc(NCc3ccco3)c2c1,active: 20.6 µM,
COc1ccc(NC(=S)N(CCc2ccncc2)C(C)C)cc1Cl,"inconclusive [inhibitor, partial curve]",
Cc1cccc(OC(C)C(=O)N2CCCc3ccccc32)c1 (stereo unspecified),"inconclusive [inhibitor, single point]",
CN1CCN(c2ncc3nc(-c4cccc(C#N)c4)c(=O)n(Cc4ccc(F)cc4)c3n2)CC1,"inconclusive [inhibitor, single point]",
C[C@H](NC(=O)[C@@H]1CCCN1C(=O)OC(C)(C)C)c1ccccc1,,inactive: 11.6%
CC(C)C(=O)Nc1cc(S(=O)(=O)Nc2ccc(Cl)cc2)ccc1Cl,"inconclusive [inhibitor, single point]",
Cc1nn(-c2ccccc2)c2c1C1(C(=O)N3c4c(cccc41)C(C)CC3(C)C)C(C#N)=C(N)O2 (stereo unspecified),"inconclusive [inhibitor, single point]",
CCCn1c(/C=N/Nc2nc3ccccc3[nH]2)nc2ccccc21,"inconclusive [inhibitor, single point]",
CCCCOc1ccc(C(=O)Nc2cccc(-c3nc4cccnc4s3)c2)cc1,"inconclusive [inhibitor, partial curve]",

Compound,Potency,"activity change, negative = growth inhibition"
O=C(CSc1nnc(CNC(=O)c2c(F)cccc2F)o1)c1ccc(Cl)cc1,,inactive: -29.9%
O=C(O)c1[nH]c2ccccc2c1C=NCc1ccccc1Cl,,inactive: -0.127%
Cc1ccc(-c2nc3sc(CCNC(=O)c4ccc(Br)o4)c(C)n3n2)cc1,"inconclusive [inhibitor, full curve, poor fit]",
Cc1cccnc1NC(=O)Nc1ccc(Cl)cc1,,inactive: -3.08%
COc1ccc(-c2cc3ccc(O)c(CN4CCOCC4)c3oc2=O)cc1OC,"inconclusive [inhibitor, single point]",
COc1ccc(NC(=O)COc2ccc(-c3nn(C)c(=O)c4ccccc34)cc2)cc1,"inconclusive [inhibitor, single point]",
CCOC(=O)C1CCN(c2ncnc3c2oc2ccccc23)CC1,"inconclusive [inhibitor, single point]",
Cc1ccc(C(=O)C2=C(O)C(=O)N(Cc3cccnc3)C2c2ccc(Br)cc2)o1 (stereo unspecified),"inconclusive [inhibitor, single point]",
CSc1cccc(NC(=O)CN2C(=O)COc3ccc(Cl)cc32)c1,"inconclusive [inhibitor, single point]",
N=c1ccn(CC(=O)c2ccc(-c3ccccc3)cc2)cc1,active: 4.61 µM,
O=C(c1ccc(N2CCN(CCO)CC2)nc1)N1CCOCC1,,inactive: -6.56%
O=C(NCCc1csc(-c2ccccc2)n1)c1c(F)cccc1F,"inconclusive [inhibitor, single point]",
O=C(NC1CCCC1)c1cnn2c(C(F)(F)F)cc(-c3ccc4c(c3)OCO4)nc12,active: 7.31 µM,
O=C(C[C@H]1CC[C@H]2[C@@H](COC[C@H](O)CN2C(=O)c2ccccn2)O1)N1CCN(c2ccccc2)CC1,,inactive: -15.1%
COc1ccc(NC(c2ccccc2)c2ccncc2)cc1 (stereo unspecified),,inactive: -9.61%
C/C(=N\Nc1ccc2nncn2n1)c1ccccn1,active: 2.31 µM,
CCOc1ccc(NC(=O)CSc2nc3c(oc4ccccc43)c(=O)n2-c2ccccc2C)cc1,"inconclusive [inhibitor, single point]",
Cn1c(=O)[nH]c(=O)c2c1nc([N+](=O)[O-])n2Cc1ccccc1,active: 0.651 µM,
Cc1ccc(OCC(=O)NC(C)c2ccccc2)cc1C (stereo unspecified),"inconclusive [inhibitor, single point]",
COc1ccc(C[C@H]2CN3C(=NC[C@@H]3Cc3ccccc3)N2CCNC(=O)CCC2CCCCC2)cc1,active: 13 µM,
COc1ccccc1OCC(=O)Nc1nonc1NC(=O)COc1ccccc1OC,,inactive: -6.39%
CCCCc1cc(=O)oc2cc(OCC(=O)NC3CCN(Cc4ccccc4)CC3)ccc12,"inconclusive [inhibitor, single point]",
COc1ccc(N2CCCn3c2nc2c3c(=O)n(CCc3ccccc3)c(=O)n2C)cc1,"inconclusive [inhibitor, single point]",
